Measurements reported in the RNAGym collection of RNA variant scans (doi:10.7554/elife.90254).
The source gives no read counts; variants with many changes may rest on few reads.

B1: LINE1-mini (parent)
chain: GGCAGAGCUCAACACAGCGUGGCAAAGUGGCUGUGGCUAGACUGCC

Variants of: B1
Assay: self-cleavage, relative activity (ratio to wild type); higher = more cleavage; in vitro, sequencing; the parent is a self-cleaving ribozyme

For GGCAGAGCUCAGCACAGCGUGACAAAGUGUCUGUGGCUAGACUGCC [A12G G22A G30U], which self-cleavage is on record?
Its self-cleavage is 0.04.

With GGCAGAGCUCAGCACAGAGUGGCAAAGUGUCCGUUGUUAGGCUGCC [A12G C18A G30U U32C G35U C37U A41G] as the variant, how does the self-cleavage read?
The self-cleavage was 0.01.

For GGCAGAGCUCAGCACAGCGUGGCAAACUGGCUGUGGCUAGACUGCU [A12G G27C C46U], which self-cleavage is on record?
Its self-cleavage is 0.03.

Which self-cleavage does the source give for GGCAGAGCUCAGCACAGCGUUGCAAAGUGGCUGUGGCUAGUUUGCC [A12G G21U A41U C42U] here?
The self-cleavage was 0.71.

With GGCAGAGCUCAGCACAGCGUGGCAAAGUUGCUUUGGCUAGACUGCC [A12G G29U G33U] as the variant, how does the self-cleavage read?
The self-cleavage was 0.02.

For GGCAGAGCUCAGCAGAGCGUGACACAGUGGGUGUGGCUAGACUGAC [A12G C15G G22A A25C C31G C45A], which self-cleavage is on record?
Its self-cleavage is 0.

Which self-cleavage does the source give for GGCAGAGCUCAGCAGAGCGUGGCAAAGUGGGUGAGGCUAGACUGCC [A12G C15G C31G U34A] here?
The self-cleavage was 0.02.

With GGCAGAGCUCAGCAUAGCAUGGCAAAGUGGCUGUGGCUAGACUGCC [A12G C15U G19A] as the variant, how does the self-cleavage read?
Its self-cleavage is 0.01.

For GGCAGAGCUCAGCACAGCGUGGCAAAGUGCCUGUGGCUAGCCUGCC [A12G G30C A41C], which self-cleavage is on record?
Its self-cleavage is 0.

With GGCAGAGCUCAGCACAGCGUGGCAAAGUAGCUGUGGUUAGCCUGCC [A12G G29A C37U A41C] as the variant, how does the self-cleavage read?
Its self-cleavage is 0.01.

Which self-cleavage does the source give for GGCAGAGCUCAGCACAGCGUGGCAAACUGGCCGUGGCUAGACUGCC [A12G G27C U32C] here?
Its self-cleavage is 0.13.

For GGCAGAGCUCAGCACAGCCUGGCAAAGUGGCUGUUGCUAGUCCGAC [A12G G19C G35U A41U U43C C45A], which self-cleavage is on record?
The self-cleavage was 0.

For GGCAGAGCUCAGCACAGCGUAGCAAAGUGACUGUGGCUAGACUGCC [A12G G21A G30A], which self-cleavage is on record?
The self-cleavage was 0.02.

With GGCAGAGCUCAGCACACCGUGGCAAAGUGGCUGGGGAUAGACUGCA [A12G G17C U34G C37A C46A] as the variant, how does the self-cleavage read?
The self-cleavage was 0.02.

Which self-cleavage does the source give for GGCAGAGCUCAGCACAGAGUGACAAUGUGGCUGUGGCUAGACUGCC [A12G C18A G22A A26U] here?
The self-cleavage was 0.01.

With GGCAGAGCUCAGCACAGCAUAGUAAAGUGCCAGUGGCUAGACUGCC [A12G G19A G21A C23U G30C U32A] as the variant, how does the self-cleavage read?
Its self-cleavage is 0.02.

With GGCAGAGCUCAGCACAGCGUGGCAAAGAGGCUCUGGCUAGACUGCC [A12G U28A G33C] as the variant, how does the self-cleavage read?
The self-cleavage was 0.05.

Which self-cleavage does the source give for GGCAGAGCUCAGCACAGCGCGGCAAAGUGGCUGGGGCUAGACUGCC [A12G U20C U34G] here?
Its self-cleavage is 0.04.

Which self-cleavage does the source give for GGCAGAGCUCAGCACAGCGUGGCAAAGUGGAUGUGGCUAGAGUGCC [A12G C31A C42G] here?
Its self-cleavage is 0.12.

For GGCAGAGCUCAGCACAGUGUGGCAAUGUGGGUGUGGCUAGAAUGCC [A12G C18U A26U C31G C42A], which self-cleavage is on record?
Its self-cleavage is 0.04.

Which self-cleavage does the source give for GGCAGAGCUCAGCACAGCGUUGCAAGGUUGCUGUGGCUAGACUGCC [A12G G21U A26G G29U] here?
The self-cleavage was 0.02.

Which self-cleavage does the source give for GGCAGAGCUCAGCACAGCGUGGCAAAUUGGAUGUGGCUGGCCUGCC [A12G G27U C31A A39G A41C] here?
The self-cleavage was 0.

For GGCAGAGCUCAGCACAACGUGGCAAAGUGGCUGUGUCUAGACUGCC [A12G G17A G36U], which self-cleavage is on record?
The self-cleavage was 0.07.

Which self-cleavage does the source give for GGCAGAGCUCAGCACAGCGAGGCUAAGUGGCUGUGCCCAGACUCCC [A12G U20A A24U G36C U38C G44C] here?
Its self-cleavage is 0.01.

For GGCAGAGCUCAGCACAGCGUGGCAAAGUGGCUGUGGCUACAAUGCC [A12G G40C C42A], which self-cleavage is on record?
Its self-cleavage is 0.01.

With GGCAGAGCUCAGCACAGCGUGGCAAAGUAGCUGUGGCUGGACUGCC [A12G G29A A39G] as the variant, how does the self-cleavage read?
The self-cleavage was 0.02.

For GGCAGAGCUCAGCACAGCGUGGCAAAGUGGCUGUGACUAGACUAUC [A12G G36A G44A C45U], which self-cleavage is on record?
The self-cleavage was 0.03.

For GGCAGAGCUCAGCACAGCGUGGCAAAGUGGCUGUGGCUAAACUGCU [A12G G40A C46U], which self-cleavage is on record?
Its self-cleavage is 0.04.

For GGCAGAGCUCAGCACACAGUGGCAAAGUGGCUGUGGCUAGACUGCC [A12G G17C C18A], which self-cleavage is on record?
Its self-cleavage is 0.01.

For GGCAGAGCUCAGCACAGCGUGGCAAAGUGGCUGUGGAUAGACUGCG [A12G C37A C46G], which self-cleavage is on record?
Its self-cleavage is 0.05.

Which self-cleavage does the source give for GGCAGAGCUCAGCACAGCCUGGUAAAUUGGCUGUGGCUAGACUGCC [A12G G19C C23U G27U] here?
The self-cleavage was 0.02.

Which self-cleavage does the source give for GGCAGAGCUCAGCACAACGUGGUAAAGUGGCUAUGGCUAGACUGCC [A12G G17A C23U G33A] here?
Its self-cleavage is 0.09.

With GGCAGAGCUCAGCACAUCGUGGCCAAGUGGCUGUGGCUAGACUGCC [A12G G17U A24C] as the variant, how does the self-cleavage read?
Its self-cleavage is 0.02.

For GGCAGAGCUCAGCACAGCGUGUCAAAGUGGCUUUGGCUAGACUGCC [A12G G22U G33U], which self-cleavage is on record?
The self-cleavage was 0.01.

With GGCAGAGCUCAGCACAGAGUGGCAAAGUGGCUGUGGCUAGACAGCC [A12G C18A U43A] as the variant, how does the self-cleavage read?
Its self-cleavage is 0.01.

Which self-cleavage does the source give for GGCAGAGCUCAGCACAGAGUGGCAAAGUGGCUGUGGCUAGAUUGCC [A12G C18A C42U] here?
Its self-cleavage is 0.04.

Which self-cleavage does the source give for GGCAGAGCUCAGCACAGCGUGACAAAGUGGCUGUGGGUAGACUGCA [A12G G22A C37G C46A] here?
Its self-cleavage is 0.01.

Which self-cleavage does the source give for GGCAGAGCUCAGCAUAACGUGGCGCAGUGGCUGUGGCUAGACUACC [A12G C15U G17A A24G A25C G44A] here?
The self-cleavage was 0.06.

Which self-cleavage does the source give for GGCAGAGCUCAGCAGAUCGUGGCAAAGUGGAUGCGGCUAGACUGCC [A12G C15G G17U C31A U34C] here?
The self-cleavage was 0.13.

Which self-cleavage does the source give for GGCAGAGCUCAGCACAGCGUGGCAAAAUGGAUGUGGCUAGACUGCC [A12G G27A C31A] here?
The self-cleavage was 0.02.

For GGCAGAGCUCAGCACAGCGUGUUAAAGUGUCUGUGGCUAGCUUGCC [A12G G22U C23U G30U A41C C42U], which self-cleavage is on record?
The self-cleavage was 0.03.

With GGCAGAGCUCAGCACAACGUGGAAAAGUGGCUGUGGCUAGACUGCC [A12G G17A C23A] as the variant, how does the self-cleavage read?
Its self-cleavage is 0.01.

Which self-cleavage does the source give for GGCAGAGCUCAGCACAGCGAUGCAAAGUGGCUGUGGCUAGACUGCC [A12G U20A G21U] here?
The self-cleavage was 0.04.

For GGCAGAGCUCAGCACACCGUGGCAACCUGGCUGUGGCUAGACUGCC [A12G G17C A26C G27C], which self-cleavage is on record?
Its self-cleavage is 0.09.

Which self-cleavage does the source give for GGCAGAGCUCAGCACAGCGUAGCAAAGUGGCUGUGGAUAGACUGCC [A12G G21A C37A] here?
Its self-cleavage is 0.14.

With GGCAGAGCUCAGCACAGCGUGGUAAUGUGGCUUUGGCUUGACUGCC [A12G C23U A26U G33U A39U] as the variant, how does the self-cleavage read?
The self-cleavage was 0.02.

Which self-cleavage does the source give for GGCAGAGCUCAGCACAGCGUGGCAAAGUGGCUGUGGCUAGAACGCC [A12G C42A U43C] here?
Its self-cleavage is 0.04.

Which self-cleavage does the source give for GGCAGAGCUCAGCACAGCGUGGCAAAGUUGCUGUGGAUAGACUGCU [A12G G29U C37A C46U] here?
Its self-cleavage is 0.42.

With GGCAGAGCUCAGCACAGCGUUGCAAAGUGGCUGUGGCUAGAAUGCC [A12G G21U C42A] as the variant, how does the self-cleavage read?
The self-cleavage was 0.03.

For GGCAGAGCUCAGCACAGCGUGGCAAAGUGGCUGUGGCUAUAAUGCC [A12G G40U C42A], which self-cleavage is on record?
Its self-cleavage is 0.01.

Which self-cleavage does the source give for GGCAGAGCUCAGCACAGCCUGGCAAAGUGGCUGUGUCUAGACUGCC [A12G G19C G36U] here?
The self-cleavage was 0.03.

Which self-cleavage does the source give for GGCAGAGCUCAGCACAGCGUGGUAAAGUGGCUGUGGGUAGACUGCC [A12G C23U C37G] here?
Its self-cleavage is 0.03.

For GGCAGAGCUCAGCAGAUCGUGGCAAAGUGGCUGUGGCUAGAAUGCC [A12G C15G G17U C42A], which self-cleavage is on record?
Its self-cleavage is 0.03.

For GGCAGAGCUCAGCACAGCGUGGCAAAAUGGCUGUAGCUAGACUGCC [A12G G27A G35A], which self-cleavage is on record?
Its self-cleavage is 0.02.

Which self-cleavage does the source give for GGCAGAGCUCAGCACAGCGGGACAAAGGGUCUGUGUCUAGACUGCC [A12G U20G G22A U28G G30U G36U] here?
The self-cleavage was 0.01.

With GGCAGAGCUCAGCACAGCUAGGCAAAGUGGCUGUGGCUAGACUGCC [A12G G19U U20A] as the variant, how does the self-cleavage read?
The self-cleavage was 0.02.
